From article PMC4336329 (PLoS ONE, 2015)
About 2,200 (0.71%) of roughly 310,000 compounds showed an effect of 50% or more. The effect is printed as a negative number. Some of the results follow.

Biological target: human ether-à-go-go-related gene (hERG) potassium channel (human, UniProt Q12809)
Assay: primary screen, population patch clamp on CHO cells stably expressing hERG

Chain of human ether-à-go-go-related gene (hERG) potassium channel (Q12809 whole entry, looked up): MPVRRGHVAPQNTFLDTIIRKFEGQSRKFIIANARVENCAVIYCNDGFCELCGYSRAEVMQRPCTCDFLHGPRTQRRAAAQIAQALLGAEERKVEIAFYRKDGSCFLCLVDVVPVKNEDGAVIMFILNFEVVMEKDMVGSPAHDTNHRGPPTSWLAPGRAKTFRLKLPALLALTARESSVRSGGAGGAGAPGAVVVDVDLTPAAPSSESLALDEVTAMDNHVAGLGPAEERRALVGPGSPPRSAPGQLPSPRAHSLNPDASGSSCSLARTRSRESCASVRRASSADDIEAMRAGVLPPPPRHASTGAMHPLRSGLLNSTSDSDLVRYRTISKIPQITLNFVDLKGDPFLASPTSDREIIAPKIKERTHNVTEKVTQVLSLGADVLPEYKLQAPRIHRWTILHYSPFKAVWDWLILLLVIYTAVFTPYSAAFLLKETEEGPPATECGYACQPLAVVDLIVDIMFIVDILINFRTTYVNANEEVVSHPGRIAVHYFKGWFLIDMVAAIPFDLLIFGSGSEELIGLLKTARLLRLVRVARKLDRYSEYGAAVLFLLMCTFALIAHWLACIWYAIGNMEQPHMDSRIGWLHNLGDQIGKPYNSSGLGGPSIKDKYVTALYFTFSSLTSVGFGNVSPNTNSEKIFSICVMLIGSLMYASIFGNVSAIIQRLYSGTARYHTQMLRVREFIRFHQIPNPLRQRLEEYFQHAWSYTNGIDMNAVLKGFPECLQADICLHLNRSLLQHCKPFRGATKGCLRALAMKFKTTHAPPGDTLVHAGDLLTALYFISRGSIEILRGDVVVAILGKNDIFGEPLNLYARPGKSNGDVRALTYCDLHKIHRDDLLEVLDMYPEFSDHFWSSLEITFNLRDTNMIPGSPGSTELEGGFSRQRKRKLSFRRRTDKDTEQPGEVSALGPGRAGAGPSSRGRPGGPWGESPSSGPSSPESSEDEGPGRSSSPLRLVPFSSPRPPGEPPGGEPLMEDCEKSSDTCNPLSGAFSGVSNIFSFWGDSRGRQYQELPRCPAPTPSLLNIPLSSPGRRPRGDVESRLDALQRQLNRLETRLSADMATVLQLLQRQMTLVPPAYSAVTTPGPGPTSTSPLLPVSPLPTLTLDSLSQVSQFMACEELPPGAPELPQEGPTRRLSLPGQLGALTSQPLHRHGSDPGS

Row | Compound | hERG current change (%, negative = inhibition) at 1uM
1 | CC(C)Cn1c(N)c(C=O)c(=O)n(C)c1=O | 8.96%
2 | Cc1ccc(NC(=O)CSc2nccn2Cc2ccccc2)cc1C | -1.62%
3 | Cc1ccccc1CCNC(=O)CCn1nc(C)c2c(C)n(-c3ccccc3)nc2c1=O | 6.78%
4 | NC(=O)C1CCN(C(=O)c2ccc(NS(=O)(=O)c3ccc(F)c(F)c3)cc2)CC1 | 6.65%
5 | COc1ccc(NC(=O)CN(C)C(=O)c2ccc3c(c2)NC(=O)CS3)cc1 | 1.42%
6 | O=C(Oc1ccc(N(Cc2cccs2)C2=NS(=O)(=O)c3ccccc32)cc1)c1ccc(Cl)cc1 | 7.78%
7 | CC(C)CN(C(=O)COC(=O)CCN1C(=O)c2ccccc2C1=O)C1CCS(=O)(=O)C1 (stereo not drawn) | 14.6%
8 | CSc1nc2sc3c(c2c(=O)n1C)CCC3 | 11.4%
9 | COc1ccc(S(=O)(=O)N(CC(=O)O)c2ccccn2)cc1 | 9.15%
10 | CN1CCN(CC(=O)Nc2cc(N3CCOCC3)ccc2[N+](=O)[O-])CC1 | 6.69%
11 | COc1ccc(/C=N/NC(=O)CNC(=O)c2cccs2)cc1 | 5.35%
12 | CN1C(=O)CS(=O)c2ccc(C(=O)NC3CC3)cc21 (stereo not drawn) | 22.1%
13 | CCOc1ncccc1C(=O)N1CCN(S(=O)(=O)c2cccs2)CC1 | 7.41%
14 | CC1CN(C(=O)C2CC2)C(C)CN1C(=O)C1CC1 (stereo not drawn) | 4.7%
15 | O=C(NCCN1CCc2ccccc2C1)C1CCN(S(=O)(=O)N2CCCCC2)CC1 | -7.63%
16 | COC(=O)c1c(NS(C)(=O)=O)sc2c1CCCC2 | 5.2%
17 | COc1cccc(NC(=O)CSc2nc3ccccc3nc2N2CCCC2)c1 | -0.785%
18 | CC1CN(C2=N/C(=C/c3ccc4c(c3)OCO4)C(=O)N2)CC(C)O1 (stereo not drawn) | 11.3%
19 | COc1ccccc1-c1cc(C(=O)Nc2sc3c(c2C#N)CCC(C)C3)c2ccccc2n1 (stereo not drawn) | 10.4%
20 | O=C(c1cnc2sccn2c1=O)N1CCCc2ccccc21 | 18.9%
21 | Cc1cc(C)c(C#N)c(SCc2ccc3c(c2)OCO3)n1 | 6.03%
22 | CCN(CC)C(=O)N1CCC(NC(=O)Cc2ccccc2)CC1 | 2.25%
23 | COc1ccccc1OCCSc1nc2ccccc2c(=O)[nH]1 | 8.29%

Row | Compound | hERG current change (%, negative = inhibition) at 1uM
24 | CC(=O)Cc1nsc(NC(=O)c2ccc(-c3ccc(Cl)c(Cl)c3)o2)n1 | -0.39%
25 | Cc1cc([N+](=O)[O-])nn1CCCC(=O)NCc1ccc(F)cc1 | 9.26%
26 | CCn1nnnc1SCC(=O)NC1CCCC1 | 16.6%
27 | O=C(CCc1ccccc1)Nc1ccccc1 | 3.09%
28 | CCOc1ccc(S(=O)(=O)Nc2cccc(OC)c2)cc1 | -5.91%
29 | CC(/C=C/c1ccccc1)=N\NC(=O)CNC(=O)c1ccccc1Cl | 8.46%
30 | COc1ccc(CNC(=O)CNC(c2ccccc2)c2ccccc2)cc1OC | -0.607%
31 | CC1CCCC(C)N1C(=O)Cn1cc(C#N)c2ccccc21 (stereo not drawn) | 10.7%
32 | COc1ccc(N(CC(=O)Nc2ccc(F)cc2F)S(=O)(=O)c2c(C)nn(C)c2C)cc1 | 11.7%
33 | COc1cccc(CNC(=O)Cc2csc(Nc3nc(=S)[nH]c4ccccc34)n2)c1 | 11.9%
34 | CCOC(=O)C1=C(C)N=c2sc(=C(C)C)c(=O)n2C1c1ccc(N(C)C)cc1 (stereo not drawn) | 13.7%
35 | COc1ccc(NC(=O)CSc2nnc(C3CCCCC3)o2)c(OC)c1 | 10.4%
36 | CCOC(=O)N1CCN(c2c(N3CCC(N4CCCCC4)CC3)c(=O)c2=O)CC1 | 14.4%
37 | Cc1nc(Nc2c(Cl)cccc2Cl)sc1C(=O)Nc1ccccc1 | -0.374%
38 | Cc1ccc(OCCC(=O)OCC(=O)NNC(=O)c2ccccc2)cc1 | 17.8%
39 | O=C(C1CCN(S(=O)(=O)c2cc(Cl)ccc2Cl)CC1)N1CCCC1 | 23.4%
40 | O=c1c(-c2cccc3ccccc23)[n+]([O-])c2ccccc2n1O | 9.75%
41 | C=CCn1c(O)c(C(C)=Nc2cc(OC)ccc2OC)c(=O)[nH]c1=O | 8.03%
42 | COc1ccccc1NC(=S)NCc1ccccc1Cl | 8.34%
43 | COc1ccccc1CNC(=O)CNC(=O)Cn1cnc2ccccc2c1=O | 16.1%
44 | CC(Nc1cc(N2CCOCC2)ccc1[N+](=O)[O-])c1ccccc1 (stereo not drawn) | 8.68%
45 | CSc1ccccc1OCc1cc(C(=O)NCC(C)(C)N2CCOCC2)no1 | -72.2%
46 | O=C(CCN1C(=O)c2ccccc2S1(=O)=O)NCc1ccccc1 | 3.99%

Row | Compound | hERG current change (%, negative = inhibition) at 1uM
47 | O=C(NCc1ccc2c(c1)OCO2)c1cc2ncc(Br)cn2n1 | 14%
48 | O=C(NCCn1cccn1)C1CCC(=O)N(CCc2ccccc2)C1 (stereo not drawn) | 9.49%
49 | CC(C)OP(=O)(OC(C)C)C1(NS(=O)(=O)c2ccc(Cl)cc2)C=C(Cl)C(=O)C(Cl)=C1 | -8.09%
50 | COc1ccc(C(=O)Nc2cnc3sc(C)nn3c2=O)cc1 | 1.75%
51 | C/C=C/C=C\C(=O)Nc1cccc(C2=NOC3(C2)C[C@@H](C(N)=O)N(C(=O)/C(C)=C/C)C3)c1 (stereo partly drawn) | 13.7%
52 | Cc1ccc(C)c(NC(=O)c2ccc(S(=O)(=O)N(C)CC3CCCO3)cc2)c1 (stereo not drawn) | -4.9%
53 | CN(CC(=O)NCCN1CCN(c2ccccc2)CC1)S(=O)(=O)c1ccc2c(c1)CCC(=O)N2 | 4.69%
54 | CNC(=S)NNC(=O)c1c(C)nc2cc(C)ccn12 | 6.17%
55 | CCCCc1ccc(NC(=S)NCCCN2CCOCC2)cc1 | -1.95%
56 | CCCN1CCN(CC(=O)Nc2cc(OCC)ccc2OCC)CC1.Cl | -23.9%
57 | CN(C)c1nc(C#N)nc(N2CCOCC2)n1 | 4.15%
58 | Cc1cc(C)c(NC(=S)N2CCN(c3ccc([N+](=O)[O-])cn3)CC2)cc1C | 9.86%
59 | CCOC(=O)c1ccc(N2C(=O)CC(NC3CCN(C(=O)c4ccc(F)cc4)CC3)C2=O)cc1 (stereo not drawn) | 14.5%
60 | Cc1[nH]c2ccc(-c3nnc(SCC(=O)c4ccc(F)cc4)o3)cc2c1C | 23.5%
61 | O=C(NNC(=O)c1cccs1)c1csc(N2CCOCC2)n1 | 18.6%
62 | CC(=O)c1c(O)n(C)c(=S)n(-c2ccccc2)c1=O | 17.1%
63 | Cc1ccc(C(=O)N2CCN(C)CC2)cc1S(=O)(=O)N1CCCCCC1 | -0.13%
64 | CNc1ccc(Br)cc(C(=O)/C=C/c2ccc(OC)cc2OC)c1=O | 9.87%
65 | CCc1noc(C)c1C(=O)OC(C)C(=O)Nc1ccccc1OC (stereo not drawn) | 4.52%
66 | COC(=O)c1ccc(OC(=O)c2cnccn2)cc1 | 13.7%
67 | Cc1ccc(S(=O)(=O)/N=C2/C=C(Sc3ncn[nH]3)C(=O)c3ccccc32)c(C)c1 | 20.2%
68 | C=CCN1C(=O)c2ccc(C(=O)OCC(=O)Nc3ccc(S(N)(=O)=O)cc3)cc2C1=O | 7.09%
69 | Cc1ccc(C)c(-n2c(N)c(C(N)=O)sc2=S)c1 | -5.99%

Row | Compound | hERG current change (%, negative = inhibition) at 1uM
70 | CCOC(=O)c1cc(C(=O)c2cc(F)ccc2O)coc1=N | -2.96%
71 | Cc1ccc(NC(=O)CCN2C(=O)C3CCCCC3C2=O)cc1[N+](=O)[O-] (stereo not drawn) | -5.48%
72 | COc1ccc(CCNC(=O)COC(=O)c2ccc(C)s2)cc1 | -1.76%
73 | Cc1ccc2nc3n(c(=O)c2c1)-c1ccc(Cl)cc1C(=O)NC3Cc1ccccc1 (stereo not drawn) | 14.8%
74 | CCC(=O)n1nc(-c2ccco2)nc1SCc1ccccc1 | 9.98%
75 | CCN(CC)S(=O)(=O)c1ccc(N=Nc2c(N)[nH]c(=O)[nH]c2=O)cc1 | 7.26%
76 | O=C(COC(=O)c1cccc(N2C(=O)C3CC=CCC3C2=O)c1)c1ccccc1 (stereo not drawn) | 9.15%
77 | COc1ccc(OC)c(CCNC(=O)c2ccc3c(c2)N(Cc2ccccc2)CCS3)c1 | 16.2%
78 | CN1CCN(NC(=O)c2cc(S(=O)(=O)N3CCOCC3)c(Cl)cc2Cl)CC1.Cl | 6.65%
79 | Cc1ccccc1-c1nnn(CC(=O)N2CCN(C(=O)c3ccco3)CC2)n1 | -7.31%
80 | CN1CCC(=NOc2ccc([N+](=O)[O-])cc2)CC1 | -56%
81 | O=C(CCC1CCCC1)c1c(O)c2ccccc2oc1=O | 11.5%
82 | CSc1nc(=O)n2cccc(C)c2n1 | 5.38%
83 | Cc1cccc(Cn2c(C)nc3ccc([N+](=O)[O-])cc3c2=O)c1 | 8.37%
84 | CN(C)c1ccc(N2C(=O)CSC2=S)cc1 | 11.8%
85 | O=C1N=C(N2CCOCC2)S/C1=C\c1ccc(-c2ccccc2Cl)o1 | 2.81%
86 | Oc1c(Br)cc(Cl)cc1C=Nc1ccccc1Br | 11.8%
87 | CCOC(=O)C1CCCN(c2c(NCCc3ccc(C)cc3)c(=O)c2=O)C1 (stereo not drawn) | 9.64%
88 | CCOC(=O)C1=C(O)C(=O)N(c2ccc(S(N)(=O)=O)cc2)C1c1cccc([N+](=O)[O-])c1 (stereo not drawn) | 1.5%
89 | CCc1c(C)nc2[nH]nc(-c3ccccc3C)n2c1=O | 3.87%
90 | COc1cccc(-c2ocnc2C(=O)Nc2ccc(N3CCOCC3)cc2N2CCOCC2)c1 | 15.6%
